The values below come from the supplement of paper PMC11417369.

± gives the standard deviation of the averaged measurements. This is one part of the list.

This assay deals with PfAP2-G AP2 domain (GST-tagged). In words: gcPBM binding intensity (ln(normalized median fluorescence intensity)); higher = stronger DNA binding. Summed up:
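Each value is the highest Masliner-normalised natural-log median intensity across replicate spots of either orientation of a probe. The probes were primer-extended double-stranded 36-bp intergenic genomic sequences on an Agilent 4 × 180k array, alongside negative controls, exposed for 1 h to GST-tagged P. falciparum DNA-binding domains expressed in E. coli. Bound protein was picked up with Alexa488 anti-GST antibody and scanned at 488 nm.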
Consider “TTTTTTTTTTTTGAGTGTACTAAAATATTACCTTTT [XGTACX_site646]”, for which the “gcPBM binding intensity (ln)” value stood at 11.2 ± 0.99.

For “TGGAAAAATAGGCACACACACATATATACCTATATA [CACACA_site4843]”, the “gcPBM binding intensity (ln)” value came out at 10.1 ± 0.12.

Take “TTTTTTTTAAATATCACACACATATAACATATTCTA [CACACA_site7687]”: the “gcPBM binding intensity (ln)” value was 9.99 ± 0.18.

For “ATATGTATATAAATGTGTACTTATAAATATATATAT [XGTACX_site3250]”, the “gcPBM binding intensity (ln)” value is 11.5 ± 1.1.

For the sequence “AATATATTTTAATACACACACACATATATATATATA [CACACA_site5969]”, the “gcPBM binding intensity (ln)” value turned out to be 10.3 ± 0.43.

“TCTTTTAAAAATATAAAAAGGAATATATAAAAATGT [CACACA_negctrl_site332]”: the “gcPBM binding intensity (ln)” value came to 10.1 ± 0.15.

Turning to “AATATATTCATCATATCAATATTGTCAAGCAAACGA [TGCATGCA_negctrl_site37]”, the “gcPBM binding intensity (ln)” value was determined as 10.1 ± 0.26.

As to “TATTCTGTGTATAAAAGTACAAATATTTAAATGTAT [XGTACX_site8234]”, the “gcPBM binding intensity (ln)” value is 11.1 ± 0.78.

In the case of “TATAAACATATAAAAAGTACATACCAATTAATATTA [XGTACX_site967]”, the “gcPBM binding intensity (ln)” value amounted to 11.3 ± 1.

Regarding “GGATAAAATGCTACGAGTACATAAGCATTTTTCCCT [XGTACX_site7796]”, the “gcPBM binding intensity (ln)” value was 11.7 ± 1.2.

“TTCTTTAATAAAATAATCTCAAAGAAAATTTTTTCT [GTGCAC_negctrl_site589]”: the “gcPBM binding intensity (ln)” value amounted to 9.46 ± 0.13.

Consider “AATAAATAGATATATACACACATATATGTGTACATA [CACACA_site7476]”, for which the “gcPBM binding intensity (ln)” value is 11.6 ± 0.92.

Turning to “TTATCCATTTTAATCACACATACTTTACTTTGGAAC [CACACA_site5584]”, the “gcPBM binding intensity (ln)” value was determined as 10 ± 0.11.

As to “GAATTTATTTTATTTTCACACACAAAAATAAATATC [CACACA_site8762]”, the “gcPBM binding intensity (ln)” value worked out at 10.1 ± 0.21.

In the case of “CATAAGCACAAGCACAAGCACACATTTATATATATA [CACACA_site882]”, the “gcPBM binding intensity (ln)” value turned out to be 10.1 ± 0.16.

As for “CGCATATTTTATGTTTGTACTCATATGAATATCATA [XGTACX_site4717]”, the “gcPBM binding intensity (ln)” value was 11.3 ± 0.59.

“TATATTATTTATATTTGTACACAGCGATATGAAATA [XGTACX_site987]”: the “gcPBM binding intensity (ln)” value amounted to 11 ± 0.57.

Turning to “TACAATTTAAAACACACACACAATAATACATATATA [CACACA_site1251]”, the “gcPBM binding intensity (ln)” value is 10.2 ± 0.15.

Take “ATATTATTATAAACTTCACACATTTTATGGGTTTTT [CACACA_site4631]”: the “gcPBM binding intensity (ln)” value came to 9.64 ± 0.24.

“TTGTATATATTAAATTGTACTTATTTTTTGTATATA [XGTACX_site3251]”: the “gcPBM binding intensity (ln)” value was determined as 11.4 ± 0.88.

As for “CAAACACCCAAACACACACACACATACATACATACA [CACACA_site8044]”, the “gcPBM binding intensity (ln)” value amounted to 10.7 ± 0.52.

For the sequence “TTTTTTTTTTTTTGTGTGCACCTTATTTTTTTGTAT [GTGCAC_site9617]”, the “gcPBM binding intensity (ln)” value worked out at 10.6 ± 0.81.

With “GTATATATTTTGTATTCATTTGTCACATATAATAGA [CACACA_negctrl_site506]”, the “gcPBM binding intensity (ln)” value came out at 10.1 ± 0.12.

As for “ATAGTAATGCATAAATATATATTATATATATATATA [XGTACX_negctrl_site576]”, the “gcPBM binding intensity (ln)” value amounted to 9.94 ± 0.38.

“CTATTGTTAAATATAATACACACGTTTTTAAAAATA [CACACA_site2183]”: the “gcPBM binding intensity (ln)” value turned out to be 10.03 ± 0.071.

For the sequence “ATTATATATACATAATGTACATATATATATTACCTT [XGTACX_site7624]”, the “gcPBM binding intensity (ln)” value was found to be 10.8 ± 0.54.

For the sequence “TATAAAATGACTATATATAATATTAAAAAAAAAAAA [TGCATGCA_negctrl_site387]”, the “gcPBM binding intensity (ln)” value is 9.46 ± 0.18.

“AAATTAGGAAATTGCACACAAAAAAAAACATATTAT [CACACA_site4074]”: the “gcPBM binding intensity (ln)” value was 10.09 ± 0.099.

Consider “TTTTTTTATTTTTTTATAAATGTATTTCTATTATTT [CACACA_negctrl_site1562]”, for which the “gcPBM binding intensity (ln)” value stood at 9.63 ± 0.028.

Turning to “AAAAAAAAAAAAAATTCACACACATATAAAAAATTA [CACACA_site8140]”, the “gcPBM binding intensity (ln)” value was determined as 9.76 ± 0.17.

As for “TAAATTAAGAATTTTACACACATTAAATAAAAAAAA [CACACA_site3638]”, the “gcPBM binding intensity (ln)” value was 9.805 ± 0.078.

“AAAAATATATTATATGTACACACAAAATTAAGGGAT [CACACA_site8384]”: the “gcPBM binding intensity (ln)” value came to 11.5 ± 0.83.

As for “TGAATATTTATACATGCACACTAAAATAAAGAATCT [CACACA_site5351]”, the “gcPBM binding intensity (ln)” value worked out at 10.1 ± 0.057.

On to “TTTGAACGAAAATACTCACACATATTTATAAACATT [CACACA_site5182]”, for which the “gcPBM binding intensity (ln)” value was 10.1 ± 0.17.

On to “GTATTTTTAAATGACACACACATATATATATATATA [CACACA_site1662]”, for which the “gcPBM binding intensity (ln)” value was determined as 10.2 ± 0.29.

Regarding “ATTTTTCATATATATATATTAATATATATATATTAA [CACACA_negctrl_site1681]”, the “gcPBM binding intensity (ln)” value is 9.74 ± 0.14.

Consider “AAAATTTCTTTTTTTTGTACATATATAATAATATAT [XGTACX_site7107]”, for which the “gcPBM binding intensity (ln)” value came to 10.9 ± 0.62.

As for “AAAATATAGTTATCAATATATAATATTTTTTTTTTA [CACACA_negctrl_site459]”, the “gcPBM binding intensity (ln)” value worked out at 9.42 ± 0.17.

With “TTATTAATATTGCATGCACACTATATAATAATTGAA [CACACA_site8258]”, the “gcPBM binding intensity (ln)” value turned out to be 9.91 ± 0.11.

As to “TCTTTCTCTCTTCAAAGTACATATAATATATACTTC [XGTACX_site7982]”, the “gcPBM binding intensity (ln)” value turned out to be 11 ± 0.74.

As for “CAGTTAATGTTGGTACTTTATATAAAAATGATATGA [CACACA_negctrl_site1600]”, the “gcPBM binding intensity (ln)” value worked out at 10.9 ± 0.54.

In the case of “ATAACAACATTTGATAAACACACAGAAGTATAAATA [CACACA_site8739]”, the “gcPBM binding intensity (ln)” value was determined as 10.1 ± 0.11.

In the case of “TATAAATAGGCATATACACACTTTTAATATTCATAA [CACACA_site6123]”, the “gcPBM binding intensity (ln)” value was found to be 9.96 ± 0.085.

Regarding “AAAACATACCTATATACACACATATAAATATAAATA [CACACA_site6956]”, the “gcPBM binding intensity (ln)” value amounted to 10.1 ± 0.3.

“TATATATTAATATACACACACACATATATATATATA [CACACA_site1608]”: the “gcPBM binding intensity (ln)” value amounted to 10.2 ± 0.21.

For the sequence “AATAAATTATTATGTACACACATAATAGTATATATA [CACACA_site1820]”, the “gcPBM binding intensity (ln)” value was 11.4 ± 0.85.

With “TTTGATATAGAAAGAGCATGCAAGTTAGATAAAATA [TGCATGCA_site470]”, the “gcPBM binding intensity (ln)” value was found to be 10.06 ± 0.057.

On to TTTTGTTATTTTGAAGTGCACTTTCCACTTAATATA, for which the “gcPBM binding intensity (ln)” value was 10.4 ± 0.3.

Take “CAATCATGGTTTTACACACACATGCATGTGAAAATT [CACACA_site4870]”: the “gcPBM binding intensity (ln)” value was 10.2 ± 0.24.

Consider “TTTCAAACTGTTCTCACACACGAAATTAGAAATGAA [CACACA_site4509]”, for which the “gcPBM binding intensity (ln)” value turned out to be 10.1 ± 0.25.

As to “AAAACAAAATAGGGAACACACACATGTCAATATATA [CACACA_site8834]”, the “gcPBM binding intensity (ln)” value was determined as 10.3 ± 0.18.

Regarding “TTTTTTTTTTTTTGGTTCACACTGAAAAGAGAGATA [GTGCAC_negctrl_site439]”, the “gcPBM binding intensity (ln)” value came to 10.2 ± 0.54.

Take “TATATACATAGACACCCACACACAAAAAAAAAAAAA [CACACA_site8186]”: the “gcPBM binding intensity (ln)” value is 10.3 ± 0.61.

Turning to “TCGAATTTGGAAAGAAGTACATGAAGCCAACATATG [XGTACX_site5222]”, the “gcPBM binding intensity (ln)” value was found to be 11.4 ± 0.79.

Turning to “AATAAATAAAAATTATGTACATATATAAAAAATACA [XGTACX_site8581]”, the “gcPBM binding intensity (ln)” value worked out at 11.3 ± 0.74.

For the sequence “TCATGTTTTACAAAAACACACAAATGAATATAAACA [CACACA_site4775]”, the “gcPBM binding intensity (ln)” value was determined as 10.1 ± 0.2.
